# Assay results as given in ChEMBL document CHEMBL4888484, “Replenishing the malaria drug discovery pipeline: Screening and hit evaluation of the MMV Hit Generation Library 1 (HGL1) against asexual blood stage Plasmodium falciparum ,using a nano luciferase reporter read-out” (2022).
# Among all 150,000 compounds or so, about 540 (0.36%) showed an effect of 50% or more. Some of the results follow.
# Tested on: Plasmodium falciparum
# Assay: Primary screen in NF54 nanoGlo assay, in single point, at 2uM, 72h; a lower Z score goes with more inhibition
# Type: functional, Erythrocyte
# Conditions: timepoint 72 hour
SMILES,% Inhibition [%],Z score
O=C(CN1CCCC1)Nc1nc(-c2ccccc2)cc(-c2ccccc2)n1,-1,0.2
CCc1nsc(NC2CCCC2(C)CO)n1 (stereo not given),0,0.06
C[C@@H](c1ccc2c(c1)OCCCO2)N(C(=O)C1CCC1)C1CC1,1,-0.27
CC1(C)CCc2ccccc2[C@@H](Nc2nnc(C(F)F)o2)C1,0,0.04
O=C(NCc1ccccn1)[C@H]1CCCN(C2CCN(CCC3CCCCC3)CC2)C1,6,-1.12
Cc1ccc(C(C)(C)NC(=O)C2CC3C=CC2C3)cn1 (stereo not given),3,-0.56
Cn1cnnc1[C@H]1CCN(c2ccnc(Cc3ccccc3)n2)C1,0,0.02
CCOC1CC(O)(CNC(=O)Cc2ccc(Cl)cc2Cl)C1 (stereo not given),-36,4.2
COC1(c2ccccc2)CN(Cc2nnn(C(C)(C)C)n2)C1,1,-0.15
Cn1cc([C@@H]2C[C@H]2C(=O)Nc2ccccc2NCC(F)(F)F)cn1,-3,0.55
CCOC(=O)CC[C@H](NC(=O)c1ccc(NC)cc1)C(=O)OCC,29,-3.7
COc1ccc2c(c1)CCc1cnc(-n3ncc(C(=O)O)c3C)nc1-2,-5,0.9
Cc1ccc([C@H]2Nc3ccccc3C(=O)N2c2ccc3c(c2)OCO3)o1,-11,1.13
CC(=O)c1cccc(NC(=O)N(C)C[C@H](O)CN2CCN(C)CC2)c1,15,-2.06
Cc1nn(C(F)F)c(C)c1S(=O)(=O)N1CCC(Cc2ccccc2)CC1,11,-1.37
Cc1ccc2nc(C[C@H]3CN(C(C)C)CC[C@H]3CC(=O)O)[nH]c2c1,-6,0.74
Cc1noc(C)c1C(=O)Nc1ccnn1Cc1ccc(Cl)c(F)c1,-4,0.74
Cn1cc(Cc2nc(C3CCCC4CC43)no2)cn1 (stereo not given),-5,0.92
CC(C)Cn1nccc1C(=O)N1CC[C@@H]2CC[C@@]21c1cccnc1,9,-1.09
O=C(CCc1ccco1)Nc1ccc(NC(=O)c2ccco2)cc1,-7,1.12
CCCc1noc(CCC(=O)N[C@@H](C)c2ccc(F)cc2)n1,-6,0.83
CC1OC(C)C(C(=O)N2CC3CC2(C(N)=O)C3)C1C (stereo not given),-12,1.75

SMILES,% Inhibition [%],Z score
CN(Cc1nnc(C2CC2)o1)OCc1ccccc1,-5,0.47
COc1ccc(CNC(=O)N2CC[S+]([O-])CC2)cc1OC,-8,1.35
Cc1nscc1C(=O)NC[C@H](C)Nc1ccccc1,-9,1.42
COc1ccc(CCNC(=O)C2CCN(c3ccc(-c4ccccc4)nn3)CC2)cc1OC,-13,1.91
CCc1nnsc1C(=O)Oc1ccc(N2CCCC2=O)cc1,-1,0.25
CNC(C)(C)c1cn(Cc2coc(C(C)(C)C)n2)nn1,1,-0.13
CCS(=O)(=O)N(CCN1CCCCC1)C1CN(C(=O)c2ccc(Cn3ccnc3)o2)C1,-13,1.77
CCN1C(=O)COc2ccc(NC(=O)c3ccc(OCc4nonc4C)cc3)cc21,1,-0.08
CCn1c(C)cc(C(=O)N2CCC[C@H]2c2ccncc2)c1C,-7,0.97
COc1c(CNc2ccc(C(=O)N3CCCCC3)nc2)c(C)nn1C,-9,0.96
COc1cc(-c2nn(CN(C)CC(=O)Nc3ccc(Cl)cc3)c(=S)o2)cc(OC)c1OC,-4,0.58
Cn1cc(C(=O)Cn2nnc3c(cnn3-c3ccccc3)c2=O)cn1,1,-0.13
CCOC(=O)C(C)(c1c[nH]c2ccccc12)c1c[nH]c2ccccc12,0,-0.04
CC(C)NC(=O)CN1CCOc2ccc(Br)cc2C1,-4,0.68
O=C1CC(c2ccccn2)=NN1C12CC(C1)C2,-12,1.18
Cc1ccc(F)c(CC(=O)N2CCCS(=O)(=O)C[C@H]2c2cnn(C)c2)c1,-5,0.67
O=C(C[C@@]1(O)C(=O)N(Cc2ccc3c(c2)OCO3)c2ccccc21)c1ccccc1O,4,-0.66
COC(=O)c1cc(N[C@H]2CC(=O)N(c3ccccc3)C2)ncn1,-3,0.31
Cc1cccc(C)c1NC(=O)[C@H]1CCCN(c2nc3c(s2)c(C)nn3-c2ccccc2)C1,8,-1.04
C[C@@H](c1ccon1)N(C)C(=O)c1ccc(OC2CCN(S(=O)(=O)N(C)C)CC2)cc1,-4,0.67
CCc1nc2ccccc2c(NC(=O)CN2CCCC2)c1C,-8,1.13
Cc1cc(C(=O)Nc2nnnn2C2CC2)ccn1,-5,0.57

SMILES,% Inhibition [%],Z score
COC[C@H]1CCCN(C(=O)c2coc(COc3ccccc3)n2)C1,-5,0.95
CC(C)N1CCC(C(=O)N2CCC3(CC2)c2ccccc2C[C@@H]3O)CC1,-8,1.03
COc1cc(-c2nc3ccc(C(=O)NCc4ccc5c(c4)OCO5)cc3nc2-c2cc(OC)c(OC)c(OC)c2)cc(OC)c1OC,12,-1.54
CCOc1ccc(CN2CCC3(CCNC(=O)CC3)CC2)cn1,2,-0.33
CCOC1CC(CO)(NC(=O)CN(C)C)C1(C)C (stereo not given),9,-0.92
O=S(=O)(N1CCCCCC1)N1CCN2CCCC[C@H]2C1,-12,1.67
COc1ccc(NC(=O)c2ccc(N[C@@H](C)C(=O)N3CCCCC3)cc2)cc1,-14,1.58
Cc1nnc(CN(C)Cc2cnc(NCc3ccccc3)nc2)o1,2,-0.36
CC(C)(C)c1cc(NCc2ccc(F)c(F)c2)n(C(C)(C)C)n1,-1,0.2
CC1(C)CC[C@@H]1NC(=O)c1ccc(C(F)F)o1,-4,0.85
COCCN(C(=O)c1coc(CN2CCN(c3ccccc3F)CC2)n1)C(C)C,1,-0.1
c1ccc(CN2CC[C@H](N3CCOCC3)C2)cc1,3,-0.34
C#CCCC1(CCC(=O)N2CCN(c3cnccc3C)CC2)N=N1,-8,0.97
c1ccc(-c2nnc(N3C[C@@H]4NCCO[C@H]4C3)s2)cc1,-14,1.54
Cc1nc(C)n(C[C@H]2CCCCN2c2nc3ccccc3o2)n1,-5,0.67
CC[C@@H](CO)NS(=O)(=O)c1cc(C)ccc1OC,-1,0.11
CCCN(C)C(=O)[C@H]1CCCN(c2cnc3nccnc3c2)C1,-4,0.67
CCOC(=O)C1CCN(c2nnnn2[C@H]2CC(=O)N(CC)C2)CC1,-4,0.48
C[C@H]1CCN(C(=O)c2ccnnc2)CC12CCC2,-28,2.99
Cc1cccc(C(=O)N2c3ccccc3NC(=O)[C@@H]2CC(=O)Nc2cccc(Cl)c2)c1,-4,0.59
CCO[C@H]1C[C@@H](O)C12CCN(C(=O)c1cc(C3CC3)no1)CC2,3,-0.58
Cc1c(NC(=O)c2cc(NC(=O)C(C)C)c(F)cc2F)cnn1-c1ccccc1,-2,0.2

SMILES,% Inhibition [%],Z score
O=C(CN1c2cc(F)ccc2CS1(=O)=O)NCC1CCC1,-12,1.48
COc1cc(C)c(CN2CCNC(=O)[C@@H]2Cc2ccccc2)cc1C,-10,1.65
COc1ccc(-c2cc(N(C)C[C@H]3CCCS(=O)(=O)C3)n[nH]2)cc1,-10,0.96
O=C(c1ccc(-c2ccccc2)o1)N1CCNCC1,-10,1.34
O=S(=O)(C[C@H]1CCCC1(F)F)NCc1ccc2c(n1)CCCC2,1,-0.2
O=C(N[C@H](c1ccccc1)C1CCC1)N1CCOC2(CCC2)C1,38,-4.92
COc1cccc(Nc2nc(C)c(C(=O)Nc3ccc(Br)cc3F)s2)c1,-6,0.89
Cc1cc(CNc2cnccn2)cc(N2CCCC2)n1,15,-2.01
CCn1nccc1C(=O)N1CCC(CCn2c(C)cnc2COC)CC1,-4,0.45
CCn1c(CCC(=O)Nc2ccc3c(c2)CCC3)nc2cc(S(N)(=O)=O)ccc21,1,-0.09
O=C(COc1ccc(Cl)cc1Br)Nc1nnc(C2CC2)s1,-3,0.56
CC(C)(C[C@H]1CCCN(C(=O)C2(C)CCCC2)C1)C(N)=O,-4,0.57
N#CC1(NC(=O)c2cc3c(cc2O)CCCC3)CCCC1,0,-0.05
c1ccc(CCn2nnc3ccccc32)cc1,-3,0.38
CC1CCCN(C(=O)c2cc3c([nH]c2=O)CCCC3O)CC1 (stereo not given),-9,1.25
O=C(Cn1cccnc1=O)Nc1nc2cc(F)c(F)cc2s1,-22,1.98
COc1ccc(-c2cc(C(F)(F)F)nc(-n3nc(-c4cccc(C)c4)c(C)c3-c3cccc(C)c3)n2)cc1,-7,1.42
CC(=O)N1CCC(N2CCC[C@H](C(=O)c3ccc4c5c(cccc35)CC4)C2)CC1,-11,1.6
Cc1nc(-c2cc3c(s2)CCN(C(=O)c2cccnc2)C3)cs1,-15,1.26
